# The supplement of paper PMC11417369
# The list shows a part of the results.
# Test system: PfSIP2 AP2 domain 1 (GST-tagged)
# Assay: gcPBM binding intensity (ln(normalized median fluorescence intensity)); higher = stronger DNA binding
# Procedure, shortened: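 Alexa488 anti-GST antibody, scanned at 488 nm, detected GST-tagged P. falciparum DNA-binding domains that had been expressed in E. coli and incubated for 1 h on an Agilent 4 × 180k array. The array carried primer-extended double-stranded 36-bp intergenic genomic probes and negative controls. Binding intensity is the highest Masliner-normalised natural-log median intensity across replicate spots of either orientation of each probe.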
row,Sequence,gcPBM binding intensity (ln)
1,TATATTTTATATTAGTGTACAAATTTCATTTTTCAT [XGTACX_site2204],6.98
2,AATATATATAAAAAAGTGCATTAGGATAACCATATA [GTGCAC_site9590],8.13
3,TATATATATATATTCACACATATAGTATTGTATTTA [CACACA_site5147],9.25
4,ATATATTTATATTTGTGTACATATTTATTATATTTA [XGTACX_site404],7.34
5,AATATGAATATCTATACACACACATATATATACACA [CACACA_site8459],6.94
6,ATTTGTGACCACACAAATAAATAAATAAAAAAAAAA [TGCATGCA_negctrl_site328],6.94
7,TAATAATAGAAACACACACACATTTTTAATAATACA [CACACA_site1216],7.01
8,AAGAAGAAAAACCATTGTACGAACTAACATATATAA [XGTACX_site3226],6.91
9,GGTATACATAATACTTGTACTAGGCAACAATAAGAT [XGTACX_site1437],7.09
10,TGTTAAAAGAAAAAAAGTACAAAAAATTATACATTT [XGTACX_site467],6.8
11,AAATGTATATATGTATGTACATATATATATATATAT [XGTACX_site5778],9.37
12,AGTTTCTATTTAGTGTGTACTTAAGAAAAATATCTC [XGTACX_site82],7.34
13,ATAAACTGAGTGGTTACACACAAAACCAATAATTTT [CACACA_site3478],6.83
14,ATATATATATATATATGTACTCATATTTTATTATTT [XGTACX_site898],9.51
15,TCGCAAATAAATTAATGTACACATATATATATATAT [XGTACX_site5145],9.65
16,TATTGATAATTTTATATATACATACATAAATAAATA [CACACA_negctrl_site1687],6.65
17,TTTTCAATTTTTTATGAACACACAAAAAAAAAAAAA [CACACA_site8808],6.98
18,ATTTTTTTCCACTAGTGTACAAATTTTACATTGTGT [XGTACX_site5023],7.19
19,ACTAATGTAAAAGTTTGTACATATATTGAGAATTAT [XGTACX_site7439],7.02
20,CTATAATATTAGTGCACACACAAAAATGTACTAAAC [CACACA_site6442],11.3
21,AAGAAAAAAACAAAAAAAAAAAAAAAAATTCTTATT [TGCATGCA_negctrl_site504],6.63
22,TAAAAAAAAACAGAAACACACATTATTCATATAGAT [CACACA_site7052],6.67
23,GTTATAAATTTTTTTTTTTTTTTTTTTTTTTTTTTT [CACACA_negctrl_site848],8.65
24,AAAAGCACCGTTCGTTGTACACTGAAACACTTTTGT [XGTACX_site199],7.7
